# Results published in publication PMC4336329 (PLoS ONE, 2015).
# In all, about 310,000 compounds went through this assay and about 14,000 (4.5%) showed an effect of 50% or more. Effects have a minus sign here. Some of the results follow.
# Target: human ether-à-go-go-related gene (hERG) potassium channel (human, UniProt Q12809)
# Assay: primary screen, population patch clamp on CHO cells stably expressing hERG
# 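Note: peak tail current of the secondary pulse compared with the same well before compound.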
# Chain of human ether-à-go-go-related gene (hERG) potassium channel (Q12809 whole entry, looked up): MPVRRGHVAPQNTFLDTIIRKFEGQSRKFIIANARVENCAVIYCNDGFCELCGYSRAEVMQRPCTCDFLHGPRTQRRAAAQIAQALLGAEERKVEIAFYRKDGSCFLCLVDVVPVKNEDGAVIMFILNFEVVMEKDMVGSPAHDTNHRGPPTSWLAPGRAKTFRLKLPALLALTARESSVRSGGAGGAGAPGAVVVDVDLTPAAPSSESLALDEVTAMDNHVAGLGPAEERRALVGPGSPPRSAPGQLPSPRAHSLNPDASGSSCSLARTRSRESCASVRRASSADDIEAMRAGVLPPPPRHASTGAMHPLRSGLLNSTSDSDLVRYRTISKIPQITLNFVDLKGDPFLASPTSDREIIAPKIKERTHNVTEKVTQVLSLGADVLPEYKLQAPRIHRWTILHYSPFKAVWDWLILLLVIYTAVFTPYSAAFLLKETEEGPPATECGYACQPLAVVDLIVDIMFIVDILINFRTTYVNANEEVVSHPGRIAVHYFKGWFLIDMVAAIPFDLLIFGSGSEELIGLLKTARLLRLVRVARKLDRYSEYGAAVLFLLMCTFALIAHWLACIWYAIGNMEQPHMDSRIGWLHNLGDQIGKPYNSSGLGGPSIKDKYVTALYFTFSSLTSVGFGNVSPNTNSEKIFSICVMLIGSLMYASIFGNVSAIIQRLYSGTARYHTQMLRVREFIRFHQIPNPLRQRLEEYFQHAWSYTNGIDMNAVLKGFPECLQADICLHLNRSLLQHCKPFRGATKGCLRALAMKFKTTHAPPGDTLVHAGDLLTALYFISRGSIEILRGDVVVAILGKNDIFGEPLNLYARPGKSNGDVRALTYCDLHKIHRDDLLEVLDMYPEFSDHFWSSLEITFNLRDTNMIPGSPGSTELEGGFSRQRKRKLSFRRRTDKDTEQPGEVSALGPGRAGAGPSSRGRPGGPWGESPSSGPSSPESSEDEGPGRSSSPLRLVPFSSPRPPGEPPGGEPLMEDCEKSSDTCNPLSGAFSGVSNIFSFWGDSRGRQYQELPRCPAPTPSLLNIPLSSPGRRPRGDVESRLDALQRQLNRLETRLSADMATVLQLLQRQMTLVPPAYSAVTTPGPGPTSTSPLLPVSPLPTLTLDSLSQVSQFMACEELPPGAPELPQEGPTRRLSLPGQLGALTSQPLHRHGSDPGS
row,Structure (SMILES),"hERG current change (%, negative = inhibition) at 10uM [%]"
1,COc1cccc(CN2CCNC(=O)C2CC(=O)N(C)Cc2nc(C)cs2)c1OC (stereo not shown),-1.63
2,NNC(=O)c1ccccc1OCCOc1ccccc1,8.09
3,Cn1c(Cn2c(=O)sc3ccccc32)nnc1SCc1ccccc1F,-19.9
4,CCCCn1c(SCC(=O)NC2CCS(=O)(=O)C2)nc2cc(S(N)(=O)=O)ccc21 (stereo not shown),-1.95
5,O=c1c2ccccc2[nH]c(=S)n1-c1ccc(Br)cc1,23.8
6,O=C(Nc1cccc(Cl)c1)NC1CC2CCC(C1)N2Cc1cccs1 (stereo not shown),-28.4
7,O=C(OCn1cncn1)c1ccc(Cl)cc1Cl,-8.6
8,CN(C)C1(CNC(=O)C2CCN(S(=O)(=O)c3c(Cl)cccc3Cl)CC2)CCCCC1,-67.5
9,NS(=O)(=O)c1ccc(S(=O)(=O)N(Cc2ccccc2F)CC2CCCO2)cc1 (stereo not shown),-11.1
10,CC(C)(C)n1nnnc1C(c1cccnc1)N(Cc1ccccc1)Cc1ccco1 (stereo not shown),-35.9
11,O=C(Nc1ccc(Cl)cc1)Nc1cc(S(=O)(=O)N2CCOCC2)ccc1N1CCCC1,-54.5
12,N#CC(C#N)=C/C=C(\Nc1ccc(Cl)cc1)c1ccc(Cl)cc1,-49.4
13,COC(=O)C1=C(C(=O)OC)[N+]2=C3N(C(=O)NC2(C)C)[C@H](CO)C[C@@]32c3ccccc3N(Cc3ccccc3)[C@@H]12,-11.2
14,CC(=O)N1CCN(c2ccc(N)cc2)CC1,8.6
15,CC(=O)NCCCc1nc2ccccc2n1Cc1ccc(C)cc1,-23.6
16,Cc1ccccc1Nc1nnc(SCC(=O)c2ccc(O)cc2O)s1,-6.31
17,CCCN1CCN(CCCNC(=O)CN2C(=O)c3cccnc3Oc3ccc(C)cc32)CC1,3.09
18,CCC12CN3CC(CC)(CN(C1)C3c1ccccc1Cl)C2O (stereo not shown),-6.91
19,O=C(NCc1ccncc1)C(=O)NCC1OCCCN1S(=O)(=O)c1ccc(F)cc1 (stereo not shown),13.1
20,COc1ccc(Cl)cc1-c1nc(-c2ccc(Br)o2)no1,13.3
21,CCOc1cc(C)c(-c2onc(C(F)(F)F)c2-c2csc(C)n2)c(O)c1,11.9
22,O=C(CN1CCN(Cc2ccccc2F)C1=O)NCc1cccnc1,-5.07
23,CC(=O)Nc1ccc(C(=O)Nc2cc(C(F)(F)F)ccc2-n2cnc3ccccc32)cc1,-38.9

row,Structure (SMILES),"hERG current change (%, negative = inhibition) at 10uM [%]"
1,c1ccc(N/N=C(\Cc2nc3ccccc3[nH]2)c2ccccc2)cc1,0.953
2,Cc1csc(NC(=O)C2CCCCC2)n1,11.3
3,CC(=NCC1CCCO1)c1c(O)n(C)c(=O)n(C)c1=O (stereo not shown),14.8
4,CCOc1ccc(S(=O)(=O)Nc2nc3ccccc3nc2N2CCN(C)CC2)cc1,3.6
5,C=CCNC(=S)NCC=C,6.77
6,Cn1c(NCc2ccccc2O)nc2ccccc21,-10.6
7,COc1ccc(CN(C)C(=O)c2cc(-c3ccc(C)cc3C)nc3ccccc23)c(OC)c1OC,-14.6
8,O=C(N=C1SC2CS(=O)(=O)CC2N1Cc1ccc(F)cc1)C1CC1 (stereo not shown),4.63
9,COCCNC(=O)CN(C)S(=O)(=O)c1ccc2c(c1)OCCO2,13.9
10,O=C1CC(CCC(=O)NC2CC2)c2ccccc2N1 (stereo not shown),-10.8
11,COc1cc(OC)cc(C(=O)N2CCN(C(=O)c3cccc(F)c3)CC2)c1,-3.19
12,Cc1cccc(C(C(=O)NC2CCCCC2)N(C(=O)c2csnn2)C2CC2)c1 (stereo not shown),7.99
13,CCCn1nnnc1SCC(=O)NC1CCCC1,20.8
14,O=C(c1cn(Cc2ccccc2)nc1-c1ccccc1)N1CCN(c2ccccn2)CC1,-47.7
15,CC(C)OS(C)(=O)=O,13.1
16,CC(C)OP(=O)(OC(C)C)C(O)c1ccc(N(C)C)cc1 (stereo not shown),16.3
17,COCC(=O)Nc1nc(-c2ccccc2)c(C)s1,-8.88
18,CCc1nnc(NC(=O)C2CCN(c3cnccn3)CC2)s1,4.24
19,COc1ccccc1CNC1CCN(Cc2ccccc2)CC1,-3.89
20,O=P(c1ccccc1)(c1ccccc1)c1cc(Br)cc(Br)c1OCCO,-49
21,CCOCCOC(=O)c1cccc(NC(=O)OCC)c1,-1.07
22,CCc1ccc(Nc2cc(=O)n(C3CCCCC3)c(=O)[nH]2)cc1,7.41
23,Cc1ccc(-c2nnc(N3CCN(C(=O)CSc4ncn[nH]4)CC3)c3ccccc23)cc1,-32.6

row,Structure (SMILES),"hERG current change (%, negative = inhibition) at 10uM [%]"
1,O=S(=O)(/N=C(/Nc1ccccc1)C(F)(F)F)c1ccccc1,-20.7
2,CCCCc1cc(=O)oc2cc(OC(C)C(=O)NCCN3CCOCC3)c(Cl)cc12 (stereo not shown),-19.1
3,CC1CCCCN1C(=O)CNCC1CCCO1.O=C(O)C(=O)O (stereo not shown),29.3
4,COc1ccc(S(=O)(=O)NC2CC(C)(C)NC(C)(C)C2)c2ccccc12,6.47
5,CCOC(=O)c1[nH]c2ccc(OC)cc2c1NC(=O)c1nonc1C,6.27
6,O=C(NC(=S)Nc1cccc(F)c1)c1cccc([N+](=O)[O-])c1,20.6
7,CC(NS(=O)(=O)c1ccccc1)C(=O)Nc1ccc2c(c1)OCCO2 (stereo not shown),1.18
8,Cc1ccccc1NC(=O)/C(=C/c1cccs1)NC(=O)c1ccco1,-2.24
9,Cc1ccccc1C(=O)N1CCN(c2ccc(NC(=O)c3ccc4c(c3)OCCO4)cc2)CC1,4.42
10,O=C(OCn1ncc(Cl)c(Cl)c1=O)c1cccc(C(F)(F)F)c1,1.49
11,CCOC(=O)c1c(NC(=O)CSc2nnnn2C)sc(C(=O)N(C)C)c1C,-1.83
12,CCC1Sc2ccc(S(=O)(=O)CCC(=O)Nc3ccccc3Br)cc2NC1=O (stereo not shown),4.06
13,CC(C)(C)OC(=O)NCCCC1=CC2=CC(=O)C(C)(O)C(=O)C2=CO1 (stereo not shown),8.95
14,CCC(=O)Nc1cccc(C2=NN(c3ccccc3)C(c3ccc(OC)cc3)C2)c1 (stereo not shown),11.6
15,CCn1cc(/C=C/C(=O)Nc2ccc(C)cc2Br)cn1,-30.7
16,Br.O=C(Cn1c(NCCO)nc2ccccc21)c1ccc(Cl)cc1,-2.55
17,O=C(CCc1ccc(Oc2cc([N+](=O)[O-])cc([N+](=O)[O-])c2)cc1)N1CCCCC1,-49.3
18,S=C1NCCOCCNC(=S)NCCOCCOCCN1,22.2
19,CC1(OC(=O)C2CCCC2)C(=O)C=C2C=C(c3ccsc3)N(CCc3c[nH]c4ccccc34)C=C2C1=O (stereo not shown),-11.2
20,Cc1ccc(C2CC(=O)NC(SCC(=O)OCc3ccccc3)=C2C#N)o1 (stereo not shown),4.21
21,O=S1(=O)CCOCCCN1Cc1cccc(C(F)(F)F)c1,9.82
22,CCOC(=O)c1c(C)cccc1OCC(N)=O,8.49
23,CC1(C(=O)Nc2nc3ccc(S(C)(=O)=O)cc3s2)CC1(Cl)Cl (stereo not shown),3.25

row,Structure (SMILES),"hERG current change (%, negative = inhibition) at 10uM [%]"
1,Cc1nnc(SCC(=O)N2CCc3ccccc3C2)s1,9.88
2,COc1ccc(/C=N/NC(=O)c2nonc2C)cc1,-4.8
3,CCOc1ccc(Nc2cc(=O)oc3ccccc23)cc1,7.78
4,CCn1c(SCC(=O)N2CCOCC2)nnc1-c1cccs1,10.8
5,CC(C)c1ccc(NC(=O)CSc2nc3ccccc3nc2N2CCCC2)cc1,-10
6,COc1ccc(-c2ccnc3nc(/N=C/N(C)C)nn23)cc1,26.6
7,COc1ccccc1-n1cnnc1SCC(=O)NC1CCCCC1,15.6
8,c1ccc(-n2ncc3c(NCc4cccnc4)ncnc32)cc1,-46
9,O=C(O)CCC(=O)Nc1ccc(C(=O)OCC(=O)c2ccc(Cl)cc2)cc1,15.9
10,O=c1[nH]nc(Cc2ccc(-c3ccc(Cl)cc3)o2)c2ccccc12,5.52
11,Cc1ccc(C)c(N2CCN(C(=O)c3ccc(NC4=NC5CS(=O)(=O)CC5S4)cc3)CC2)c1 (stereo not shown),2.89
12,Cc1ccc(N=Nc2c(O)[nH]c3ccc(F)cc23)cc1,12.6
13,CCOc1ccc(-c2nc(-c3cccnc3)no2)cc1OCC,0.74
14,CCCCCCCCNC(=O)c1cnccn1,-7.1
15,Cc1ccc(NC(=O)CSc2nnc3n2CCCCC3)cc1,-4.15
16,Cc1ccc(/C=N/Nc2nncc(-c3ccccc3)n2)o1,4.83
17,CC(C)(C)C(=O)NC1CCN(S(C)(=O)=O)CC1,3.06
18,CCOC(=O)C1=NN(c2ccc(F)cc2)C2=NC(C)=C(C(=O)OC)C(c3cccs3)N12 (stereo not shown),-2.17
19,C[C@H]1CCC(=O)N([C@H](COc2ccccc2)Cc2ccccc2)CC1,-42.7
20,O=C(c1ccco1)N1CCN(CC(=O)N2CCCc3c2c(=O)oc2ccc(O)cc32)CC1,-5.14
21,CCn1c(/C=C/c2ccccc2)nc2ccccc2c1=O,3.96
22,Cc1ccc(CS(=O)(=O)c2cn(CC(=O)Nc3ccon3)c3ccccc23)cc1,8.95
